Assay results reported in the antibiotic and cytotoxicity screens of Wong et al. (2023).
The other results are listed elsewhere or left out.

Tests used:
HSkMC = human skeletal muscle cells; experiment: cytotoxicity call (relative viability < 0.9); settings: 10 µM
HepG2 = experiment: cytotoxicity call (relative viability < 0.9); settings: 10 µM
S. aureus RN4220 = experiment: growth inhibition call (relative growth <= 0.2); settings: 50 µM

| Compound | cytotoxicity call (HSkMC) | cytotoxicity call (HepG2) | growth inhibition call (S. aureus RN4220) |
| --- | --- | --- | --- |
| C[C@@H]1CN([C@H](C)CO)C(=O)c2cc(NC(=O)c3ccccc3)ccc2O[C@@H](C)CCCCO[C@H]1CN(C)Cc1ccc(C(F)(F)F)cc1 | inactive | inactive | inactive |
| CN(C)c1ccc(O)c2c1C[C@H]1C[C@H]3[C@H](N(C)C)C(=O)C(C(N)=O)=C(O)[C@@]3(O)C(=O)[C@H]1C2=O | inactive | inactive | inactive |
| CO[C@@H]1CN(C)C(=O)c2ccc(NC(=O)C3CC3)cc2OC[C@H](C)N(C(=O)C2CCOCC2)C[C@@H]1C | inactive | inactive | inactive |
| CN1CC[C@@]2(C(=O)N3CCOCC3)CCN(S(C)(=O)=O)CC[C@H]12 | inactive | inactive | inactive |
| C[C@@H]1CN([C@@H](C)CO)C(=O)c2cc(NC(=O)Nc3cccc4ccccc34)ccc2O[C@@H](C)CCCCO[C@@H]1CN(C)CC1CCCCC1 | active | active | inactive |
| CC(=O)Nc1c(I)c(NC(C)=O)c(I)c(C(=O)O)c1I | inactive | inactive | inactive |
| CCc1nc2ccc(C(=O)Nc3cc(-c4ccccc4)ccc3OC)cn2c1N(C)Cc1ccc(Cl)cc1 | inactive | inactive | inactive |
| O=C(C[C@@H]1C=C[C@H](NC(=O)CN2CCOCC2)[C@H](CO)O1)NCCc1ccccc1 | inactive | inactive | inactive |
| C[C@H]1CC/C=C\[C@H]2O[C@@]34C=CCN(Cn5nnc6ccccc65)C(=O)[C@H]3N(CCO)C(=O)[C@@H]4[C@@H]2C(=O)O1 | inactive | inactive | inactive |
| Cc1cc(C(=O)Nc2cccc3c2O[C@@H](CN(C)C(=O)Nc2ccc4c(c2)OCO4)[C@@H](C)CN([C@@H](C)CO)C3=O)n(C)n1 | inactive | active | inactive |
| COc1ccc(S(=O)(=O)N(C)C[C@@H]2Oc3ccc(NS(=O)(=O)c4ccccc4)cc3C(=O)N([C@H](C)CO)C[C@H]2C)cc1 | inactive | inactive | inactive |
| COC(=O)C[C@@H]1CC[C@H]2[C@@H](COC[C@@H](O)CN2S(=O)(=O)c2ccc(F)cc2)O1 | inactive | inactive | inactive |
| Cc1ccc(S(=O)(=O)N(C)C[C@@H]2OCCCC[C@H](C)Oc3ccc(NC(=O)Nc4ccc5c(c4)OCO5)cc3C(=O)N([C@@H](C)CO)C[C@H]2C)cc1 | inactive | inactive | inactive |
| COc1ccc(S(=O)(=O)N(C)C[C@H]2Oc3ccc(N(C)C)cc3C(=O)N([C@H](C)CO)C[C@@H]2C)cc1 | inactive | inactive | inactive |
| O=C1OCC=C[C@H]2O[C@@]34C=CCN(CCN5CCOCC5)C(=O)[C@H]3N(CCO)C(=O)[C@@H]4[C@@H]12 | inactive | inactive | inactive |
| Cc1ccc(S(=O)(=O)N[C@@H](Cc2ccccc2)C(=O)NCCCn2cc(C(=O)NO)nn2)cc1 | inactive | inactive | inactive |
| C[C@H]1CN([C@@H](C)CO)S(=O)(=O)c2ccc(C#CCC3CCCC3)cc2O[C@@H]1CN(C)C(=O)CN(C)C | inactive | inactive | inactive |
| CC(C)NC(=O)N(C)C[C@H]1Oc2ccc(NC(=O)NC3CCCCC3)cc2CC(=O)N([C@H](C)CO)C[C@@H]1C | inactive | inactive | inactive |
| Cc1ccc(S(=O)(=O)Nc2ccc3c(c2)C(=O)N([C@H](C)CO)C[C@@H](C)[C@@H](CN(C)C(=O)Nc2cccc4ccccc24)O3)cc1 | inactive | inactive | inactive |
| CC(=Cc1ccccc1)C=C1SC(=S)N(CC(=O)O)C1=O | inactive | inactive | inactive |
| C[C@H]1CCCCO[C@H](CN(C)Cc2ccc3c(c2)OCO3)[C@@H](C)CN([C@@H](C)CO)C(=O)c2cc(NS(=O)(=O)c3ccccc3)ccc2O1 | inactive | inactive | inactive |
| C[C@H]1CN([C@@H](C)CO)C(=O)c2cccc(NS(C)(=O)=O)c2O[C@@H]1CN(C)S(=O)(=O)c1ccccc1 | inactive | inactive | inactive |
| CNC(=O)CN1CCO[C@H]2CN(C(=O)COC)C[C@@H]21 | inactive | inactive | inactive |
| C[C@H]1CN([C@@H](C)CO)C(=O)Cc2cc(NC(=O)CCCCCC(=O)Nc3ccccc3N)ccc2O[C@H]1CN(C)C(=O)Nc1ccc(C(F)(F)F)cc1 | inactive | inactive | inactive |
| COc1ccc(S(=O)(=O)Nc2ccc3c(c2)C(=O)N([C@H](C)CO)C[C@H](C)[C@@H](CN(C)Cc2ccc4c(c2)OCO4)OCCCC[C@H](C)O3)cc1 | inactive | inactive | inactive |
